Experimental data as given in the supplement of paper PMC10369915.
The list shows a part of the results. Cut-off read from the data, not from the text of the source: active = 3.2 or more and inactive = the rest. Most of these values are background signal.

molecular target: SHP2 C-SH2 domain E139D; assay: enrichment score (SH2-bound / input frequency) (ratio); bacterial display of known human phosphotyrosine sites (pTyr-Var adds point mutants) read by sequencing; higher = stronger binding; tyrosines were phosphorylated by kinases first; conditions: peptide library: Human pTyr
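Note: displayed peptides selected on beads carrying the immobilized SH2 domain, with library peptides lacking any tyrosine serving as negative controls.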

Enrichment score, inactive:
NEDADENYFINEEDE [P55G_HUMAN_341] 1.78
TDEAQFIYILGNRSK [ANXA6_HUMAN_201] 1.4
SREYDQLYEEYTRTS [P85B_HUMAN_464] 0.799
SFTGSRTYSLVGQAW [NTAL_HUMAN_58] 1.08
ARVITNQYNNPAGLY [PDLI1_HUMAN_144] 0.846
SKLHDSLYNEDCTFQ [APC1_HUMAN_571] 1.01
DEDCAGNYDNLLSQF [PDPK1_HUMAN_376_YA] 0.83
DDFRQPRYSSGGNFE [OCLN_HUMAN_368] 0.649
DAKKEGPYDVVVLPG [PARK7_HUMAN_67] 0.63
FLSEETPYSYPTGNH [PAXI_HUMAN_31] 1.04
KLLCDKYYMASPDLE [PDK2_HUMAN_216] 1.34
AKMLCEQYYLVAPEL [PDK3_HUMAN_211] 1.68
IVINPNAYDNLAIYK [PEAK1_HUMAN_635] 1.01
YKPDSPEYKAACKLW [PB1_HUMAN_134] 1.3
KSLVGTPYWMAPEVI [PAK6_HUMAN_566] 1.02
ESSQRGCYACSVVVD [P85B_HUMAN_655] 0.72
YYTTEFLYNLYSSEG [PFKAL_HUMAN_640] 2
ALLAKKGYQERDLEP [P2RX6_HUMAN_64] 0.671

molecular target: SHP2 C-SH2 domain wild-type; assay: as above; conditions: peptide library: Human pTyr

Enrichment score, inactive:
NEDADENYFINEEDE [P55G_HUMAN_341] 1.23
TDEAQFIYILGNRSK [ANXA6_HUMAN_201] 1.27
SREYDQLYEEYTRTS [P85B_HUMAN_464] 0.636
SFTGSRTYSLVGQAW [NTAL_HUMAN_58] 2.2
ARVITNQYNNPAGLY [PDLI1_HUMAN_144] 0.733
SKLHDSLYNEDCTFQ [APC1_HUMAN_571] 0.831
DEDCAGNYDNLLSQF [PDPK1_HUMAN_376_YA] 0.765
DDFRQPRYSSGGNFE [OCLN_HUMAN_368] 0.498
DAKKEGPYDVVVLPG [PARK7_HUMAN_67] 0.495
FLSEETPYSYPTGNH [PAXI_HUMAN_31] 0.571
KLLCDKYYMASPDLE [PDK2_HUMAN_216] 1.34
AKMLCEQYYLVAPEL [PDK3_HUMAN_211] 1.39
IVINPNAYDNLAIYK [PEAK1_HUMAN_635] 1.29
YKPDSPEYKAACKLW [PB1_HUMAN_134] 1.31
KSLVGTPYWMAPEVI [PAK6_HUMAN_566] 0.823
ESSQRGCYACSVVVD [P85B_HUMAN_655] 0.633
YYTTEFLYNLYSSEG [PFKAL_HUMAN_640] 2.09
ALLAKKGYQERDLEP [P2RX6_HUMAN_64] 0.739

molecular target: SHP2 N-SH2 domain L43F; assay: as above; conditions: peptide library: Human pTyr

Enrichment score, inactive:
NEDADENYFINEEDE [P55G_HUMAN_341] 1.45
TDEAQFIYILGNRSK [ANXA6_HUMAN_201] 1.19
SREYDQLYEEYTRTS [P85B_HUMAN_464] 0.524
SFTGSRTYSLVGQAW [NTAL_HUMAN_58] 0.739
ARVITNQYNNPAGLY [PDLI1_HUMAN_144] 0.731
SKLHDSLYNEDCTFQ [APC1_HUMAN_571] 0.88
DEDCAGNYDNLLSQF [PDPK1_HUMAN_376_YA] 0.737
DDFRQPRYSSGGNFE [OCLN_HUMAN_368] 0.443
DAKKEGPYDVVVLPG [PARK7_HUMAN_67] 0.775
FLSEETPYSYPTGNH [PAXI_HUMAN_31] 0.673
KLLCDKYYMASPDLE [PDK2_HUMAN_216] 0.815
AKMLCEQYYLVAPEL [PDK3_HUMAN_211] 1.47
IVINPNAYDNLAIYK [PEAK1_HUMAN_635] 1.19
YKPDSPEYKAACKLW [PB1_HUMAN_134] 1.4
KSLVGTPYWMAPEVI [PAK6_HUMAN_566] 0.742
ESSQRGCYACSVVVD [P85B_HUMAN_655] 0.729
YYTTEFLYNLYSSEG [PFKAL_HUMAN_640] 1.87
ALLAKKGYQERDLEP [P2RX6_HUMAN_64] 0.86

molecular target: SHP2 N-SH2 domain T42A; assay: as above; conditions: peptide library: Human pTyr

Enrichment score, inactive:
NEDADENYFINEEDE [P55G_HUMAN_341] 1.91
TDEAQFIYILGNRSK [ANXA6_HUMAN_201] 0.811
SREYDQLYEEYTRTS [P85B_HUMAN_464] 0.762
SFTGSRTYSLVGQAW [NTAL_HUMAN_58] 0.888
ARVITNQYNNPAGLY [PDLI1_HUMAN_144] 0.797
SKLHDSLYNEDCTFQ [APC1_HUMAN_571] 0.974
DEDCAGNYDNLLSQF [PDPK1_HUMAN_376_YA] 0.729
DDFRQPRYSSGGNFE [OCLN_HUMAN_368] 0.528
DAKKEGPYDVVVLPG [PARK7_HUMAN_67] 0.6
FLSEETPYSYPTGNH [PAXI_HUMAN_31] 0.537
KLLCDKYYMASPDLE [PDK2_HUMAN_216] 0.968
AKMLCEQYYLVAPEL [PDK3_HUMAN_211] 1.57
IVINPNAYDNLAIYK [PEAK1_HUMAN_635] 0.896
YKPDSPEYKAACKLW [PB1_HUMAN_134] 1.05
KSLVGTPYWMAPEVI [PAK6_HUMAN_566] 0.826
ESSQRGCYACSVVVD [P85B_HUMAN_655] 0.636
YYTTEFLYNLYSSEG [PFKAL_HUMAN_640] 1.79
ALLAKKGYQERDLEP [P2RX6_HUMAN_64] 0.588

molecular target: SHP2 N-SH2 domain T52S; assay: as above; conditions: peptide library: Human pTyr

Enrichment score, inactive:
NEDADENYFINEEDE [P55G_HUMAN_341] 2.07
TDEAQFIYILGNRSK [ANXA6_HUMAN_201] 1.21
SREYDQLYEEYTRTS [P85B_HUMAN_464] 0.594
SFTGSRTYSLVGQAW [NTAL_HUMAN_58] 0.937
ARVITNQYNNPAGLY [PDLI1_HUMAN_144] 0.817
SKLHDSLYNEDCTFQ [APC1_HUMAN_571] 0.8
DEDCAGNYDNLLSQF [PDPK1_HUMAN_376_YA] 0.991
DDFRQPRYSSGGNFE [OCLN_HUMAN_368] 0.612
DAKKEGPYDVVVLPG [PARK7_HUMAN_67] 0.603
FLSEETPYSYPTGNH [PAXI_HUMAN_31] 0.577
KLLCDKYYMASPDLE [PDK2_HUMAN_216] 1.32
AKMLCEQYYLVAPEL [PDK3_HUMAN_211] 1.61
IVINPNAYDNLAIYK [PEAK1_HUMAN_635] 0.928
YKPDSPEYKAACKLW [PB1_HUMAN_134] 1.4
KSLVGTPYWMAPEVI [PAK6_HUMAN_566] 0.846
ESSQRGCYACSVVVD [P85B_HUMAN_655] 0.701
YYTTEFLYNLYSSEG [PFKAL_HUMAN_640] 2.17
ALLAKKGYQERDLEP [P2RX6_HUMAN_64] 0.811

molecular target: SHP2 N-SH2 domain wild-type; assay: as above; conditions: peptide library: Human pTyr

Enrichment score, inactive:
NEDADENYFINEEDE [P55G_HUMAN_341] 2.36
TDEAQFIYILGNRSK [ANXA6_HUMAN_201] 1.64
SREYDQLYEEYTRTS [P85B_HUMAN_464] 0.668
SFTGSRTYSLVGQAW [NTAL_HUMAN_58] 0.898
ARVITNQYNNPAGLY [PDLI1_HUMAN_144] 0.758
SKLHDSLYNEDCTFQ [APC1_HUMAN_571] 0.822
DEDCAGNYDNLLSQF [PDPK1_HUMAN_376_YA] 0.726
DDFRQPRYSSGGNFE [OCLN_HUMAN_368] 0.528
DAKKEGPYDVVVLPG [PARK7_HUMAN_67] 0.793
FLSEETPYSYPTGNH [PAXI_HUMAN_31] 0.671
KLLCDKYYMASPDLE [PDK2_HUMAN_216] 1.42
AKMLCEQYYLVAPEL [PDK3_HUMAN_211] 1.78
IVINPNAYDNLAIYK [PEAK1_HUMAN_635] 0.956
YKPDSPEYKAACKLW [PB1_HUMAN_134] 1.41
KSLVGTPYWMAPEVI [PAK6_HUMAN_566] 0.837
ESSQRGCYACSVVVD [P85B_HUMAN_655] 0.647
YYTTEFLYNLYSSEG [PFKAL_HUMAN_640] 2.48
ALLAKKGYQERDLEP [P2RX6_HUMAN_64] 0.625
